Experimental findings from the RNAGym collection of RNA variant scans (doi:10.1093/nar/gkz1192) are described below.

Read counts are not given, so values of variants with three or more changes are uncertain.

B1: CPEB3 Ribozyme (parent)
chain: UAACAGGGGGCCACAGCAGAAGCGUUCACGUCGCAGCCCCUGUCAGAUUCUGGUGAAUCUGCGAAUUCUGCUGUAUAUCUC

Variants of B1 are the subject of the data set. Put plainly: self-cleavage, relative activity (ratio to wild type); higher = more cleavage; in vitro, sequencing. An outline of the steps:
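For each CPEB3 ribozyme variant, relative activity is its cleaved/total read fraction divided by the unmutated ribozyme's. Barcoded error-prone PCR libraries were transcribed by T7 RNA polymerase (5 hours, 37°C) and held in DNase I for 15 min before an EDTA stop, with cleavage occurring throughout. Template-switching reverse transcription and Illumina sequencing were used to read the RNAs. A 5-read minimum applied, and results are the mean of three batches.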
Regarding UAACAGGGGGCCACAGCAGAAGCGUCCACGUCGCAGCCCCUGUCAGAUUCUGGUGAGUCUGCGAAUUCUGCUGUAUAUCCC [U26C A57G U80C], the self-cleavage stood at 0.2.
To UAACAGGGGGCCACAGCAGAAGCGUCCACGUCGCAGCCCCUGUCAAGUUCUGGUGAAUCCGCGUAUUCUGCUGUAUAUCUC [U26C G46A A47G U60C A64U] belongs 0.07; to UAACAGGGGGCCACAGCAGAAGCGUCCAUGUCGCAGCCCCUGUCAGAUUCUGGUGAAUCUGCGAAUUCUGCAGUAUAUCUC [U26C C29U U72A], 0.21.
The same measure for UAACAGGGGGCCACAGCAGAAGCGUCCACGUCGCAGCCCCUGUCUUAUUCUGGUGAAUCUGCGGAUUCUGCUGUAUAACUC [U26C A45U G46U A64G U78A]: 0.1; for UAACAGGGGGCCACAGCAGAAGCGUCCACGUCGCAGCCUCUGUCAGGUUCUGGUGAAUCUGCGAAUUCUGCUGGAUAUCUC [U26C C39U A47G U74G]: 0.53; for UAACAGGGGGCCACAGCAGAAGCGUCCACGCCGCAGCCCCUGUCAGAUUCUGGUGAAUCUGCGAAUUCUGCUGUAUGUCUC [U26C U31C A77G]: 0.32.
Regarding UAACAGGGGGCCACAGCAGAAGCGUCCACGUCGCAGACCCUGUCAGAUUCUGGCGAAUCUGCGAAUUCUGCUGUAUAUCUC [U26C C37A U54C], the self-cleavage stood at 0.42.
The same measure for UAACAGGGGGCCACAGCAGAAGCGUCCACGUCGCAGCCCCUGUCAGGUUCUGGUGAAUCUGCGAAUUCGGCUGUAUAUCCC [U26C A47G U69G U80C]: 0.14; for UAACAGGGGGCCACAGCAGAAGCGUCCACGUCGCAGCCCCUGUCAGAUUCUGGUGAGUCUGCGAAUUCUGCUGCAUAUCUC [U26C A57G U74C]: 0.69; for UAACAGGGGGCCACAGCAGAAGCGUCCACGUCGCAGUCCCUGUCAGAUUCUGGUGAAUCGGCGAAUUCUGCUGUAUAUCUC [U26C C37U U60G]: 0.11.
To UAACAGGGGGCCACAGCAGAAGCGUCCACGUCCCAGCCCCUGUCAGAUUCUGUUGAAUCUGCGAAUUCUGCUGUGUAUCUC [U26C G33C G53U A75G] belongs 0.17.
For UAACAGGGGGCCACAGCAGAAGCGUCCACGACGCAGCCCCUGUCAGAUACUGGUGAAUCUGCGAAUUCUGCUGUAUAUCUC [U26C U31A U49A], the self-cleavage is 0.13.
To UAACAGGGGGCCACAGCAGAAGCGUCCACGUCGCUGCCCCUGUCAGAUUCCGGUGAAUCUGCGAACUCUGCAGUAUAUCUC [U26C A35U U51C U66C U72A] belongs 0.04.
The same measure for UAACAGGGGGCCACAGCAGAAGCGUCUACGUUGCAGCCCCUGUCAGAUUCUGGUGAAUCUGCGAAUUCUGCUGUAUAUCUC [U26C C27U C32U]: 0.08.
The same measure for UAACAGGGGGCCACAGCAGAAGCGUCAACGUCGCAGCCCCUGUCAGAUUCUGGUGAAUCUGCGAAUCCUGCUGUAUAUCUC [U26C C27A U67C]: 0.17.
As for UAACAGGGGGCCACAGCAGAAGCGUCCAUGUCGCAGCCCCUGUCAGAUUCUGGUGUAUCUGCGAAUUCUGCUGUACAUCUC [U26C C29U A56U U76C], the self-cleavage stood at 0.12.
As for UAACAGGGGGCCACAGCAGAAGCGUCCACGUCGCAGCCCCUGUCAGAUUCUGGUGAAUCUGCGAAUUCUGUUGUGUAUCUC [U26C C71U A75G], the self-cleavage was determined as 0.27.
To UAACAGGGGGCCACAGCAGAAGCGUCCACGUCCCAGCCCCCGUAAGAUUCUGGUGAAUCUGGGAAUUCAGCUGUAUAUCUC [U26C G33C U41C C44A C62G U69A] belongs 0.06; to UAACAGGGGGCCACAGCAGAAGCGUCCAUGACGCAGCCCCUGUCAGAUCCUGGUGGAUCUGCGAAUUCUACUGUAUAUCUC [U26C C29U U31A U49C A56G G70A], 0.05; to UAACAGGGGGCCACAGCAGAAGCGUCCACGUCGCAGCUCCUGUCAGAUUCUGGUGAAUCUGCGUAUUCUGCUGUAUAUCUC [U26C C38U A64U], 0.22.
The same measure for UAACAGGGGGCCACAGCAGAAGCGUCCACGUCGCAGCCCUUGUCAGAUUCUGGUGUAUCUGCGAAUUCUGCUGUAUAUCUC [U26C C40U A56U]: 0.11; for UAACAGGGGGCCACAGCAGAAGCGUCCACGUCGCAGCCCCUGUCAGUUUCUGGUGAAUCCGCGAAUUCCACUGUAUAUUUC [U26C A47U U60C U69C G70A C79U]: 0.16; for UAACAGGGGGCCACAGCAGAAGCGUCCACGUCGCAGCCCCUGUCAGUUUCUGGUGAGUCCGCGAAUUCCGCUGUAUAUCCC [U26C A47U A57G U60C U69C U80C]: 0.07.
Take UAACAGGGGGCCACAGCAGAAGCGUCCACGUCGCAGCCCCUGUCAGAUUCUGGUGAAUCUACGAAUUCUGCCGUAUAACUC [U26C G61A U72C U78A]: the self-cleavage came out at 0.15.
On to UAACAGGGGGCCACAGCAGAAGCGUCCACGUCGCAGCCCCUGUCUGAUUCUGGUGAAUCUGCGAAAUCUGCUGUAUACCUC [U26C A45U U66A U78C], for which the self-cleavage was found to be 0.1.
The same measure for UAACAGGGGGCCACAGCAGAAGCGUCCACGUCGCAGCCCCUGUCAGAUUCUGGUGAGUCUGCGAAUUCUGCCGUAUAUCUC [U26C A57G U72C]: 0.31; for UAACAGGGGGCCACAGCAGAAGCGUCCACGUCGCAGCCCCUGUCAGAUUCUGGUGAGUCCGCGAAUUCCGCUGUAUAUCUC [U26C A57G U60C U69C]: 0.15.
The same measure for UAACAGGGGGCCACAGCAGAAGCGUCCACGUCGCAGCCCCUGUCCGAUUCUGGUGAAUCUGCGAGUUCUGCUGUAUAUCUC [U26C A45C A65G]: 0.24; for UAACAGGGGGCCACAGCAGAAGCGUCCACGUCGCAGCCCCUGUCGGAUUCUGGUGAGUCUGCGAUUUCUGCUGUAUAUCUC [U26C A45G A57G A65U]: 0.07; for UAACAGGGGGCCACAGCAGAAGCGUCCACGUCGCAGCCACUGUCAGAUUCUGGGGAAUCUGCGAAUUCUGCAGUAUAUCUC [U26C C39A U54G U72A]: 0.2.
To UAACAGGGGGCCACAGCAGAAGCGUCCACGUCGCAGCCCCUGUCAGAUUCUGGUGAAUCUGCGAGUUCCGCAGUAUAUCUC [U26C A65G U69C U72A] belongs 0.08; to UAACAGGGGGCCACAGCAGAAGCGUCCACGUCGCAGCCCCUGUCAGUCUCUGGUGAAUCUGCGAAUCCUGCUGUACAUCUC [U26C A47U U48C U67C U76C], 0.07; to UAACAGGGGGCCACAGCAGAAGCGUCCACGUCGCACCCCCUGUCAGAUCCUGGUGAAUCUGCUAAUUCAGCAGUAUAUCAC [U26C G36C U49C G63U U69A U72A U80A], 0.03.
As for UAACAGGGGGCCACAGCAGAAGCGUCCACGUCACAGCCCCUGUCAGAUUCUGGUGAAUCUGCGAAUCCUGCUGUAUUCCUC [U26C G33A U67C A77U U78C], the self-cleavage stood at 0.1.
